This sample is rich in variants without activity. Where only a bound is given, the exact number is not on record here.

Sequences and labels used below:
B1: TPR 5TU (parent)
chain: GGAUCUUCUCGAUCUAACAAAAAAGACAAAUCUGCCACAAAGCUUGAGAGCAUCUUCGGAUGCAGAGGCGGCAGCCUUCGGUGGCGCGAUAGCGCCAACGUUCUCAACUAUGACACGCAAAACGCGUGCUCCGUUGAAUGGAGUUUAUCAUG

The variants in this data set derive from B1. Kind of data set: polymerase ribozyme fitness, log enrichment relative to wild type (log ratio); higher = more active; in vitro selection for triplet polymerase activity. The essentials:
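Mutant libraries were PCR-built and transcribed for each subunit of a heterodimeric triplet polymerase ribozyme and selected for one round in triplicate at −7 °C, frozen, before gel excision of extended constructs and streptavidin-bead capture. Input and output libraries were Illumina-sequenced, keeping genotypes with ≥10 input reads and ≥1 read per output. Fitness is a logarithmic ratio of genotype to wild-type enrichment, in base 2, using inverse-variance-weighted replicate averages.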
With GGAUCUUCUCGAUCUAACAAAAUAGACAAAUCUGCCACAAAGCUUGAGAGCAUCUUCGGAUGCAGAGGCGGCAGCCUUCGGUGGCGCGAUAGCGCCAAGGUUUUCAACUAUGACAGGCAAAAUGCGUGCUCCGUUGAGUGGUGUUUAUCAUG, the “polymerase ribozyme fitness (log ratio)” value was not above -4.2.

Consider GGAUCUUCUCGAUCUAACAAAAUAGACAAAUCUGCCACAAAGCUUUAGAGCAUCUUCGGAUGCAGAUGCGGCAGCCUUCGGUGGCGCGAUAGCGCGAACGUUCUCAACUAUGACACGCAAAACGCGUGCUCCGUUGAAUGGAGUUGAUCAAG, for which the “polymerase ribozyme fitness (log ratio)” value is not above -4.2. In the case of GGAUCUUCUCGAUCUAACAAAAUAGACAAAUCUGCCACAAAGCUUGAGAGGAUCUUCGGCUGCAGAGGCGGCAGCCUUCGGUGGCGCUAUAGCUCCAACGUUCUCAACUAUGACACGCAAAACGCGUGCUCCGUUGAAUGGAGUUUAUCAUG it was not above -4.2.

GGAUCUUCUCGAUCUAACAAAAUAGACAAAUCUGCCACAAAGCUUGAGAGCAUCUUCGGAUGCAGAGGCGGCAGGCUUCGGUGGCGCGAUAGUGCCAACGUUCUCAACUAUGACACGCAAAACGCGUGCUCCGUUGAAUGGAGUUUAUCAUG: the “polymerase ribozyme fitness (log ratio)” value was not above -4.2.

On to GGAUCUUCUCGAUCUAACAAAAUAGACAAAUCUGCCACAAACCUUGAGAGCAUCUUCGGAUGCAGAGGCGGCAGCCUUCGGUGGCGCCAUAGCGCCAACGUUCUGAACUAUGACAGGCAAAACGCGUGCUCCGUUGAAUGGAGUUUAUCAUG, for which the “polymerase ribozyme fitness (log ratio)” value was not above -4.2. With GGAUCUUCUCGAUCUAACAAAAUAGACAAAUCUGCCACAAAGCUUGAGAGUAUCUUCGGAUGCAGAGGCGGCAGCCUUCGGUGGCGCGAUAGCGGCAACGUUCUCAACUAUGACACGCAAAACGCGUGCUCCGUUGAAUGGAGUUUAUCAUG, the “polymerase ribozyme fitness (log ratio)” value was not above -4.2. Turning to GGAUCUUCUCGAUCUAACAAAAUAGACAAAUCUGCCAUAAAGCUUGAUAGCAUCUUCGGAUGCAGAGGCGGCAGCCUUCGGUGGCGUGAUAGCGCCAACGUUCUCAACUAUGACACGCAAAACGCGUGCUCCGUUGAAUGGAGUUUAUCAUG, the “polymerase ribozyme fitness (log ratio)” value is not above -4.2. In the case of GGAUCUUCUCGAUCUAACAAAAUAGACAAAUCUGCCACAAAGCUUGAGAGCAUCUUCGGAUGCAGAGGCGGCAGCCUUCGGUGGGGCGAUCGCGGCAACGUUCUUAACUAUGACACGCAAAACGCGUGCUCCGUUGAAUGGAGUUUAUCGUG it was not above -4.2; in that of GGAUCUUCUCGAUCUAACAAAAUAGACAAAUCUGCCACAAAGCUUGAGAGCAUCUUCGGAUGCAGAGGCGGCAGCCUUCGGUGGUGCGAUAGUGCCAACGUUCUCAACUAUGACACGCAAAACGCGUGCUCCGGUGAAUGGAGUUUAUCAUG, not above -4.2; in that of GGAUCUUCUCGAUCUAACAAAAUAGACAAAUCUGCCACAAAGCUUAAGAGUAUCUUCGGAUGCAGAGGCGGCAGCCUUCGGUGGCGCGAUAGCGCCAACGUUAUCAACUAUGACACGCAAAACGCGUGCUCCGUUGAAUGGAGUUUAUCAUG, not above -4.2.

With GGAUCUUCUCGAUCUAACAAAAUAGACAAAUCUCCCACAAAGCUUGAGAGCAUCUUCGGAUGCAGAGGCGGCAGCCUUCGGUGGCGCGAUAGCGCCAACGUUCUCAACUAUGACACGCAAAACGCGUGCUCCGUUGAAUGGAGUCCAUCAUG, the “polymerase ribozyme fitness (log ratio)” value is not above -4.2. To GGAUCUUCUCGAUCUAACAAAAUAGACAAAUCUGCCACAAAGCUUGAGAGGAUCUUCGGGUGCAGAGGCGGCAGCCUUCGGUGGCGCGAUAGCGUCAACGUUCUCAACUAUGACACGGAAAACGCGUGCUCCGUUGAAUGGAGUUUAUCAUG belongs not above -4.2. In the case of GGAUCUUCUCGAUCUAACAAAAUAGACAAAUCUGCCACAAAGCUUGAGAGCAUAUCCGGAUGCAGAGGCGGCAGCCUUCGGUGGCGCGAUAGCGCCAACGUUCUCAACUAUGACACGCAAAACGCGUGCUCCGUUGAAAGGCGUUUAUCAUG, the “polymerase ribozyme fitness (log ratio)” value was not above -4.2. To GGAUCUUCUCGAUCUAACAAAAUAGACAAAUCUGCCACAAAGCUUGAGAGCAUUUUCGGAUGCAGAGGCGGCAGCCUUCGGUGGCGCUAUAGCGCCAACGUUCUCAACUAUGACACGCAAAACGCGUGCUCCGUUGAAUGGAGUUUAUCAUG belongs not above -4.2; to GGAUCUUCUCGAUCUAACAAAAUAGACAAAUCUGCCACAAAGCUUGAGAGCAUCUUCGGAUGCAGAGGCGGCAGCCUUCGGUGGUGCGAUAGCGCCAACGUUCUCAACUAUGACAGGCAGAACGCGUGCUCCGUUGAAUGGAGUUUAUCAUG, not above -4.2.

With GGAUCUUCUCGAUCUAACAAAAUAGACAAAUCUGCCACAAAGCUUGAGAGCAUCUUCGGAUGCAGAGGCGGCAGCCUUCGGUGGCGAGAUAGCGCCAACGUUCUCAACUAUGACACGCAAAACGCGUGCUCCGUUGAAUGGAGUUUAUCAUG, the “polymerase ribozyme fitness (log ratio)” value was not above -4.2. As for GGAUCUUCUCGAUCUAACAAAAUAAACAAAUCUGCCUCAAAGCUUACGAGCAUCUUCGGAUGCAGAGGCGGCAGCCUUCGGUGGCGCGAUAGCGGCAACGUUCUCAACUAUGACACGCAAAACGCGUGCUCCGUUGAGUGGAGUUUAUCAUG, the “polymerase ribozyme fitness (log ratio)” value is not above -4.2. To GGAUCUUCUCGAUCUAACAAAAUACACAAAUCUGCCACAAAGCUUGAGAGCAUCUUCGGAUGCAGAGGCGGCAGCCAUCAGUGGUGCGAUAGCGCCAACGUUCUCAACUAUGACACGCAAAACGCGUGCUCCGUUGAAUGGAGUUUAUCAUG belongs not above -4.2; to GGAUCUUCUCGAUCUAACAAAAUAGACAAAUCUGCCACAAAGCUUGAGAGCAUCUUAGGAUGCAGAGGCGGCAGCCUUCGGUGGCGCGAUACCGCCAACGUUCUCAACUAUGACACGCAAAACGCGUGCUCCGUUGAAUGGAGUUUAUGAUG, not above -4.2.

The values are drawn from the RNAGym collection of RNA variant scans (doi:10.1073/pnas.2313332121).
